The source of these data is publication PMC7819943, “Rice protein-binding microarrays: a tool to detect cis-acting elements near promoter regions in rice”.

Some of the results follow.

The target of this test is T1, OsWOX13 (Oryza sativa, UniProt Q5QMM3 1-267).
T1 sequence: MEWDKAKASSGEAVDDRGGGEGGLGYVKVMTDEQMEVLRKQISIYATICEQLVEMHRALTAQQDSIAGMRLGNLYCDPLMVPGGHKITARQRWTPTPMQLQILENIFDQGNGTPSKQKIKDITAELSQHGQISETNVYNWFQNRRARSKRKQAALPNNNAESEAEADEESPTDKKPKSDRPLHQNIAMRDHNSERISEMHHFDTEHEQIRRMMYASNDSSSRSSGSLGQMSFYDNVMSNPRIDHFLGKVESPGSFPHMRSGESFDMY
In words: protein-binding microarray (RPBM); PBS, 2% BSA, 51.3 ng/ul salmon testes DNA, 50 uM zinc acetate, 200 nM TF, 25 C, 1 h; high values mean tight binding. The following applies: protein: recombinant; tags: N-terminal polyhistidine and DsRed monomer fusion (pET32a); label: CyDye5-dUTP incorporated in the synthesized complementary strand; 3' TTTTT single-stranded linker to array surface; dsDNA, one strand shown. In a few lines:
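Transcription factors were made in E. coli BL21-CodonPlus as N-terminal fusions to a polyhistidine tag and DsRed, then purified on Ni–NTA. After primer extension with Cy5-dUTP and blocking with 2% BSA, a custom Agilent array was exposed for 1 h at 25 °C to 200 nM protein in PBS, 2% BSA, salmon testes DNA and 50 µM zinc acetate. Washed arrays were scanned on an Axon 4000B, and the binding signal is per-feature fluorescence intensity in arbitrary units.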
As to “TGGGTAATTTATCGATAACGCACCCCTTAAATATGCAAATCGGAGTCACCTAGTGCAG”, the binding signal was 6500 fluorescence intensity (a.u.).
In the case of “TGATTGCTTTTCGTCAATTAGCCGCACAGCACAGTACTCTCGGAGTCACCTAGTGCAG”, the binding signal is 5160 fluorescence intensity (a.u.).
Next, “TCACCTAGATTATTAAGAATTTTAACTGTTCAAGGAAACTCGGAGTCACCTAGTGCAG”: 4360 fluorescence intensity (a.u.).
Consider “AACAACATCTCGAGATAATTGGTGCCACCAATTCCACCAACGGAGTCACCTAGTGCAG”, for which the binding signal is 5800 fluorescence intensity (a.u.).
On to “CGTGTGCAGTGCAGTGATGATTGAGAAAGGCCATGCCATACGGAGTCACCTAGTGCAG”, for which the binding signal is 3900 fluorescence intensity (a.u.).
Next, “TTTCTGTTGTGCAAGAGGTGATTGGTTAACATCTCGAAAGCGGAGTCACCTAGTGCAG”: 11200 fluorescence intensity (a.u.); “CATAATCATCCATCCTATTTAAACAAACATATCTGCAGGTCGGAGTCACCTAGTGCAG”: 4410 fluorescence intensity (a.u.); “CTAAATTACACCTTGTATACATACTACTATACGGTACAGTCGGAGTCACCTAGTGCAG”: 16800 fluorescence intensity (a.u.).
Regarding “AAAATTTGGTTGAAATTGAAACGATGTGACGGAAAAGTTGCGGAGTCACCTAGTGCAG”, the binding signal was 6780 fluorescence intensity (a.u.).
As for “TTGTGATTGGTGAGAGGCCTTCCAAATTTGTAACTTTCCACGGAGTCACCTAGTGCAG”, the binding signal was 44000 fluorescence intensity (a.u.).
For “TCTAACTAGATATAATTAAAGTGATTTTACAGCTCTTGAGCGGAGTCACCTAGTGCAG”, the binding signal was 34900 fluorescence intensity (a.u.).
The value for “GAGTAATTTACTCTTTAGAAATTGACATAGATGTTATCAGCGGAGTCACCTAGTGCAG” was 25600 fluorescence intensity (a.u.); that for “TTTCTATTAACTGCAATAATGGTTCGACAGTGTGCGCGTACGGAGTCACCTAGTGCAG” was 11800 fluorescence intensity (a.u.); that for “TGCCATGTCACCGCGATGTTGATTTATGACTGGATTTCACCGGAGTCACCTAGTGCAG” was 16300 fluorescence intensity (a.u.).
As for “TTTGATTTCCCCATCCATCATCGAAGCATCATCAAGCAGACGGAGTCACCTAGTGCAG”, the binding signal is 13800 fluorescence intensity (a.u.).
The value for “CTAAATGATCTCTTTATTAATCCCTTGTACACCTGTAACCCGGAGTCACCTAGTGCAG” was 6760 fluorescence intensity (a.u.); that for “ACATTGACTGCACCTGTACAAATCATCAAATGTTTGAAGTCGGAGTCACCTAGTGCAG” was 14300 fluorescence intensity (a.u.).
For “AATTAATTATGGTCGACTCCGACTCGTTAACCACATGTTTCGGAGTCACCTAGTGCAG”, the binding signal is 21400 fluorescence intensity (a.u.).
In the case of “TTTACATAATTATAAATTATTTTGTTATGAGTTGTTTTATCGGAGTCACCTAGTGCAG”, the binding signal is 20700 fluorescence intensity (a.u.).
The value for “GCGCAATTGGATTGAAGAATATTCAGATCATAGTTTTCCTCGGAGTCACCTAGTGCAG” was 14800 fluorescence intensity (a.u.); that for “AATTAAATTTAAGTTCTACACTTAAATTAGTTTGCTTAAGCGGAGTCACCTAGTGCAG” was 11700 fluorescence intensity (a.u.); that for “AAAGGTATTAATTGCAGTTAGCTCAGAATTTCTCAGCCAACGGAGTCACCTAGTGCAG” was 7130 fluorescence intensity (a.u.).
For the sequence “TGGAAATTAATTATAAATATTAAACGTAGACTATTAATAACGGAGTCACCTAGTGCAG”, the binding signal was 7050 fluorescence intensity (a.u.).
